According to publication PMC6260146, “Complement Factor H and Apolipoprotein E Participate in Regulation of Inflammation in THP-1 Macrophages” (Frontiers in Immunology, 2018):

Target: T1, complement Factor H (human, UniProt P08603 19-1231, NT647 (N-hydroxysuccinimide-reactive Red dye) where used as NT647-FH; unlabelled where used as inhibitor or enhancer)
T1 construct: complement factor H, 20 domains; The supplier is named for the unlabelled FH of the dilution series; Labelled in a3, unlabelled in a5 and a6; also called FH; NT647-FH; source: bought: Complement technologies
Assay: flow cytometry on cells; inhibition of NT647-FH (200 nM) binding to CR3 expressing U937 cells by 1.5 μM unlabelled apoE2, apoE3 or apoE4, 4°C; the pair apoE with FH
Details: both partners purified

T1 sequence (P08603 19-1231): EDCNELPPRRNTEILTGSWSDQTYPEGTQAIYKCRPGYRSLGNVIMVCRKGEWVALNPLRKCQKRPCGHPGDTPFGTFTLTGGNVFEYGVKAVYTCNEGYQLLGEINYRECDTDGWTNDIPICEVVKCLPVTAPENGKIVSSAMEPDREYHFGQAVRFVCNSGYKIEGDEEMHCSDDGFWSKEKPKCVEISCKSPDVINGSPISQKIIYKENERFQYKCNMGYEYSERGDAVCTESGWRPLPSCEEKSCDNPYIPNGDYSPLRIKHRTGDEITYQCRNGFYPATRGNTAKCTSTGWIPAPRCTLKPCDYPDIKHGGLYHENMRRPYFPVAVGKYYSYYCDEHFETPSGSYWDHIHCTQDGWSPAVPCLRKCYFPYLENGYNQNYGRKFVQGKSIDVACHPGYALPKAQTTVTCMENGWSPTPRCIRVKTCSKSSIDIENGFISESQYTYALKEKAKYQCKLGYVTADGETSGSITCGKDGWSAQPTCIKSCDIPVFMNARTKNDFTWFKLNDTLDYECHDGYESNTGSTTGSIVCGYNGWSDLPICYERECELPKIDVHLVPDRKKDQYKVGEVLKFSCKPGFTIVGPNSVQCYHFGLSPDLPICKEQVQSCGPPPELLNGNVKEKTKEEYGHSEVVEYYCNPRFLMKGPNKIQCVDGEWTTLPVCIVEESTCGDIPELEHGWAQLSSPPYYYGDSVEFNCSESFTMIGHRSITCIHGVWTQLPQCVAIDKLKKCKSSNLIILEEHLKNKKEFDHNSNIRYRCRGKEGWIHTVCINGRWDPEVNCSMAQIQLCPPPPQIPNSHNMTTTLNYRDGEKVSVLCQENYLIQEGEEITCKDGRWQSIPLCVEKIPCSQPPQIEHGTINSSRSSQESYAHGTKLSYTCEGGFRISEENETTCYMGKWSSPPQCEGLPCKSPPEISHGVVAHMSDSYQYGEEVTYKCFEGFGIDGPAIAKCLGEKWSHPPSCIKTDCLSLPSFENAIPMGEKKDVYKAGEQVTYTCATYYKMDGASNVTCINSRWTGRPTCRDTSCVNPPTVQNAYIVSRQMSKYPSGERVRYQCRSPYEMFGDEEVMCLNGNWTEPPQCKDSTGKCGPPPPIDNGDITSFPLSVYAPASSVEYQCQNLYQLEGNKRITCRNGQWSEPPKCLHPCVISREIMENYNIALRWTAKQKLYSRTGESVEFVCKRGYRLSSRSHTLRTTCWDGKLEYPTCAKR

binding result: binds
B1: recombinant apolipoprotein E2 (natural protein)
chain: not shown
modifications: NT647 (N-hydroxysuccinimide-reactive Red dye) where used as NT647-apoE; unlabelled as inhibitor
notes: apolipoprotein E, isoform apoE2; also called apoE2; apoE
